In the assay the target is GF4 (GAL4 DNA binding domain fused to four FKBP12) (yeast; human) (UniProt P04386). The assay can be described thus: cell-based or functional assay.

With “RMTS (FRB - lactose repressor minimal tetramerization domain 324-360 - p65 activation domain) (from UniProt P42345 2025-2113; P03023 324-360; Q04206 361-550)”, the SEAP reporter gene expression, HT1080 B cells, 10 nM rapamycin, high amount of activation domain plasmid; fold over GF4+RS turned out to be 2 fold.

In turn, “RMTSV (RMTS fused to VP16 activation domain) (from UniProt P42345 2025-2113; P03023 324-360; Q04206 361-550; P06492 419-490)” came in with an SEAP reporter gene expression, HT1080 B cells, 10 nM rapamycin, high amount of activation domain plasmid; fold over GF4+RS of 4 fold.

The values are drawn from patent US6479653.
